Reference: PubChem BioAssay AID463173 (ICCB-Longwood Screening Facility, Harvard Medical School, 2010)
Among all 52,000 compounds or so, about 1,700 (3.3%) were called active. Rule as the data show it: active = survival mostly below about 52% (no sharp cut-off); inactive = mostly above about 56%. Some of the results follow.

System: Wild type
Assay: S. aureus survival, RN4220 and DeltatarO strains – OD600, teichoic acid synthesis inhibitors, primary screen (AID 463173)
Details: S. aureus RN4220 wild type/DeltatarO growth, OD600, 18 h, hits give low values, screened at 18.75 µg/mL (by protocol)

Structure (SMILES)	survival
COc1ccc(OC)c(CNC(=O)c2ccc(NC(=O)c3nsc4ccccc34)cc2)c1	inactive: 87%
COC(=O)c1ccccc1NC(=O)c1ccc(-c2nc(CSc3ccc(C)cc3)c(C)o2)cc1	inactive: 81%
CN(Cc1ccccc1)C(=O)CCS(=O)(=O)c1ccc2c(c1)oc(=O)n2C	inactive: 70%
CCn1cc(S(=O)(=O)c2cccc(Cl)c2)c(=O)c2cc(F)c(N3CCN(C)CC3)cc21	inactive: 56%
COc1ccccc1N1CCN(Cc2nnc(-c3ccccc3C)o2)CC1	inactive: 82%
O=S(=O)(Nc1ccc(C(F)(F)F)cc1)c1ccc2c(c1)OCCO2	inactive: 68%
COCCCn1c(=O)c2sccc2n2c(CCCC(=O)Nc3cccc(C(F)(F)F)c3)nnc12	inactive: 87%
O=C(NCCCc1nc2ccccc2n1Cc1cccc(Cl)c1)C1CCCCC1	inactive: 97%
O=C(c1ccc2c(c1)N(Cc1ccc(Cl)cc1)C(=O)c1ccccc1S2=O)N1CCC(Cc2ccccc2)CC1 (centres undefined)	inactive: 86%
CCOC(=O)c1cccc(NC(=O)c2ccc3nc(CCc4ccccc4)oc3c2)c1	inactive: 82%
Nc1cc(N)nc(SCC(=O)c2ccccc2)n1	inactive: 108%
Cc1ccccc1OCC(=O)Nc1ccc2nc(SCC(N)=O)sc2c1	inactive: 77%
COC(=O)c1cn(CC(=O)NC2CCCCCC2)c2ccccc12	inactive: 114%
CCCCOC(=O)c1ccc(NC(=O)c2csnn2)cc1	inactive: 79%
CC1=C(C(=O)Nc2ccccc2)C(c2ccc[nH]2)n2ncnc2N1 (centres undefined)	active: -3%
COC(=O)c1ccc(NC(=O)C(=O)NCC(c2cccnc2)N2CCc3ccccc32)cc1 (centres undefined)	inactive: 47%
Cc1cccc(C)c1NC(=O)CSc1nc2ccccc2c2nc(CCc3c(C)n[nH]c3C)nn12	inactive: 69%
CCCOc1ccc(C(=O)Nc2ccc3oc(-c4ccc(N(C)C)cc4)nc3c2)cc1	inactive: 91%
Cc1c(NC(=O)c2sc3ccccc3c2Cl)cccc1-c1nc2ccccc2o1	inactive: 84%
Cc1c(Cl)cccc1NC(=O)Cn1nnc(-c2nc(-c3ccccc3)no2)c1N	inactive: 55%
Cn1c(C(=O)N(Cc2ccccc2)C(C)(C)C)cc2sccc21	inactive: 109%
CCC(C(=O)NC1CCCC1)N(C(=O)Cn1nnc(-c2cccs2)n1)c1cnc2ccccc2c1 (centres undefined)	inactive: 106%
O=C1OCc2ccc(NC(=O)C3CCCCC3)cc21	inactive: 109%

Structure (SMILES)	survival
COc1ccc(S(=O)(=O)N(Cc2cc3cc4c(cc3[nH]c2=O)OCCO4)C2CCCC2)cc1	inactive: 106%
CCn1cc(C(=O)NCCc2ccc(C)cc2)c(=O)c2cc(S(=O)(=O)N3CCC(C)CC3)ccc21	inactive: 76%
CCCOc1ccc(OC(=O)c2cn(-c3ccc(OC)cc3)c(=O)c3ccccc23)cc1	inactive: 74%
COc1cc(NC(=O)c2nc3ccccc3n(C)c2=O)cc(OC)c1OC	inactive: 73%
COc1cccc(-c2nn3c(=O)cc(CN4CCN(C(=O)/C=C/c5ccccc5)CC4)nc3s2)c1	inactive: 80%
COc1ccc(NC(=O)Cn2nc(C(F)(F)F)c3c2CCCC3)cc1OC	inactive: 64%
CCOc1ccccc1NC(=O)C1=C(C)Nc2ncnn2C1c1cccs1 (centres undefined)	inactive: 32%
Cc1cccc(N2CCN(C(=O)c3ccc4c(Cl)c5c(nc4c3)CCCC5)CC2)c1C	inactive: 88%
O=C(OCc1cc(=O)n2nc(C3CC3)sc2n1)c1ccccc1Cl	inactive: 77%
COc1ccc(CNC(=O)C2=CC(c3cccc(OC)c3)=NS(=O)(=O)N2C)cc1	inactive: 82%
CC(=O)c1cccc(NC(=O)c2cc(C)nc3c2c(C)nn3-c2cccc(Cl)c2C)c1	inactive: 69%
Cc1ccc(CCNC(=O)CCS(=O)(=O)c2cc3c(cc2Cl)NC(=O)CO3)cc1	inactive: 91%
CC(C)NC(=O)CN1C(=O)c2cccnc2Sc2ccccc21	inactive: 82%
Cc1ccc(-c2nc(-c3cc4cccc(OCc5ccccc5F)c4oc3=O)no2)cc1	inactive: 69%
COC(=O)c1c(-c2ccc(Cl)cc2)noc1N1CCN(c2ccc(F)cc2)CC1	inactive: 68%
CC(C)c1cc(C(=O)NCc2ccccc2)no1	inactive: 79%
CCOc1ccc(CNC(=O)CCS(=O)(=O)c2ccc3c(c2)oc(=O)n3C)cc1	inactive: 75%
COc1ccc(NC(=O)c2csnn2)cc1	inactive: 111%
Cc1ccc(NC(=O)Cn2c(=O)n(Cc3ccc(C(=O)NCc4ccc5c(c4)OCO5)cc3)c(=O)c3ccccc32)cc1	inactive: 98%
COc1ccccc1N1CCN(c2csc3ccccc3c2=O)CC1	inactive: 80%
Cc1cccc(C)c1Nc1c(-c2ccsc2)nc2cccc(C)n12	inactive: 32%
COc1cccc(NC(=O)Cn2c(-c3nonc3N)nc3ccccc32)c1	inactive: 103%
Cc1cccc(NC(=O)N2CCN3CCCCC3C2)c1C (centres undefined)	inactive: 68%

Structure (SMILES)	survival
COc1cc(NC(=O)CCS(=O)(=O)c2ccc3c(c2)n(C)c(=O)c(=O)n3C)cc(OC)c1	inactive: 93%
CCOc1ccc(/C=C/c2nc(C#N)c(N3CCC(C)CC3)o2)cc1	inactive: 116%
COc1ccccc1CNC(=O)CCCCn1c(=O)c2ccccc2n(CC(=O)Nc2cccc(Cl)c2)c1=O	inactive: 85%
COC(=O)c1cc2oc3ccccc3c2n1Cc1ccccc1Cl	inactive: 60%
CCc1ccc(Sc2cc(C(=O)NCCCN3CCC(C)CC3)c3ccccc3n2)cc1	inactive: 68%
N#CC(C#N)=C(C#N)c1cc2c([nH]1)CCCC2	inactive: 95%
O=c1c(-c2cc(-c3ccccc3)nc3c2COc2ccccc2-3)coc2ccc(Cl)cc12	inactive: 126%
COc1ccc(CNC(=O)C(=O)Nc2cccc(C)c2C)cc1	inactive: 91%
Cc1ccc(-n2ncc3c(N4CCN(c5ccc(F)cc5)CC4)ncnc32)cc1	inactive: 83%
COc1ccc2oc(-c3ccc(NC(=O)c4ccc(Cl)cc4Cl)cc3)nc2c1	inactive: 76%
CCc1ccc(NC(=O)C2CCCN(c3nnc(C)c4c(C)n(-c5ccccc5)nc34)C2)cc1 (centres undefined)	inactive: 68%
O=C(Nc1cc(Cl)ccc1Cl)c1cc(S(=O)(=O)N2CCc3ccccc3C2)ccc1F	inactive: 78%
COc1ccc(C)cc1NC(=O)c1c(C)nc2ccccn12	inactive: 102%
CC1CC(NNc2ccc(Br)cc2)NC(=S)N1 (centres undefined)	inactive: 118%
O=C(Cn1c(-c2cccs2)cc2ccccc21)N1CCN(c2ccc(F)cc2)CC1	inactive: 80%
COC(=O)c1c(-c2cccs2)csc1NC(=O)c1ccc(C)cc1	inactive: 79%
Cc1ccc(CNS(=O)(=O)c2ccc3c(c2)CC(C)N3C(=O)C2CCC2)cc1 (centres undefined)	inactive: 97%
O=C(O)CC1SC(=O)N(c2ccccc2)C1=O (centres undefined)	inactive: 109%
COc1ccc(OC)c(C(=O)CN2C(=O)N(c3ccc(C)cc3)S(=O)(=O)c3ccccc32)c1	inactive: 82%
Cc1cc(Br)ccc1NC(=O)c1c(C)oc2ncnc(N3CCCCC3)c12	inactive: 73%
Cc1ccccc1N1CC(c2nc3ccccc3n2Cc2ccc(Br)cc2)CC1=O (centres undefined)	inactive: 32%
CCOc1ccc(CNC(=O)C2CCN(C(=O)N3CC(CC)Oc4ccc(C)cc43)CC2)cc1OC (centres undefined)	inactive: 88%
Cc1cc(NC(=O)c2cc(-c3ccc(Cl)c(Cl)c3)on2)n(-c2ccccc2)n1	inactive: 105%

Structure (SMILES)	survival
CCOC(=O)CSc1nc2sc3c(c2c(=O)n1-c1ccc(OC)cc1)CC(C(C)C)OC3 (centres undefined)	inactive: 77%
COc1ccccc1NC(=O)Cn1c(=O)n(CC2CCC(C(=O)NCCc3ccccc3)CC2)c(=O)c2ccccc21 (centres undefined)	inactive: 58%
CCOC(=O)N1CCc2c(sc3c2C(=O)NC(c2ccc(C(=O)OC)cc2)N3)C1 (centres undefined)	inactive: 69%
Cc1nnc(SCC(=O)Nc2ccc(N(C)C)cc2)[nH]c1=O	inactive: 92%
CCc1ccc(NC(=O)Cn2c(=O)n(CCCC(=O)NCCc3ccc(OC)c(OC)c3)c(=O)c3ccccc32)cc1	inactive: 94%
CCN(CC)CCOC(=O)c1ccc(NC(=O)c2cc3cc(OC)ccc3oc2=O)cc1	inactive: 72%
COCCNC(=O)CN1C(=O)COc2ccc(S(=O)(=O)N3CCCC3)cc21	inactive: 118%
CCOc1ccc(Sc2cc(C(=O)NCc3ccccc3Cl)c3ccccc3n2)cc1	inactive: 80%
CC(C)C(=O)c1cn(CC(=O)N2CCCC2)c2ccccc12	inactive: 105%
O=C(CCc1ccccc1)N/N=C/c1ccco1	inactive: 93%
c1ccc(CCn2nnnc2C(c2cccnc2)N2CCc3ccccc32)cc1 (centres undefined)	inactive: 127%
Cc1c(Cl)cccc1-n1nc(C)c2c(C)cc(=O)n(CC(=O)N3CCCc4ccccc43)c21	inactive: 71%
Cc1ccc(CNC(=O)CCCN2C(=O)CCn3nc(-c4cccn4C)cc32)cc1	inactive: 129%
COc1ccc(-c2nc3ccccc3n3c(-c4ccc(OC)cc4)c4c(=O)n(C)c(=O)n(C)c4c23)cc1	inactive: 75%
CCCNC(=O)C1CCN(c2nc3ccc(C)cc3[nH]2)CC1	inactive: 55%
CCCOc1ccc(CNC(=O)C2CCN(C(=O)c3sccc3-n3cccc3)CC2)cc1	inactive: 71%
Cc1cc2oc3c(c(=O)c2cc1C)C(c1ccc(C(C)C)cc1)N(c1nc(C)c(C)s1)C3=O (centres undefined)	inactive: 66%
Cc1cnc(=O)[nH]c1SCC(=O)Nc1cc(C(F)(F)F)ccc1Cl	inactive: 72%
CCOC(=O)c1ccc2c(c1)N(Cc1ccc(F)cc1Cl)C(=O)c1ccccc1S2	inactive: 77%
Cc1cccc(C(=O)Nc2ccc(N3CCC(N4CCCCC4)CC3)c(C(=O)O)c2)c1	inactive: 73%
